{
  "source": "PubChem BioAssay AID463173",
  "about": "(ICCB-Longwood Screening Facility, Harvard Medical School, 2010)",
  "note": "In all, about 52,000 compounds went through this assay and about 1,700 (3.3%) were called active. Cut-off read from the data, not from the text of the source: active = survival mostly below about 52% (no sharp cut-off); inactive = mostly above about 56%. This is one part of the list.",
  "data": [
    {"system": "Wild type", "assay": "growth inhibition of S. aureus wild type versus tarO mutant, primary screen, teichoic acid synthesis inhibitors, RN4220, OD600 (AID 463173)", "details": "S. aureus RN4220 wild type/DeltatarO growth, OD600, 18 h, stronger effect = lower value, screened at 18.75 µg/mL (by protocol)", "values": [
      {"smiles": "O=C(Nc1ccc(Cl)cc1)c1ccc2c(c1)N(Cc1ccccc1)CCS2", "survival": "inactive: 89%"},
      {"smiles": "Cc1ccc(N2CCn3c2nc2c3c(=O)n(Cc3cccc(Cl)c3)c(=O)n2C)cc1C", "survival": "inactive: 82%"},
      {"smiles": "CC(C)c1ccc(NC(=O)CN2C(=O)C3(SCC(=O)N3c3ccc(F)cc3)c3ccccc32)cc1", "note": "(centres undefined)", "survival": "inactive: 58%"},
      {"smiles": "O=C(O)/C=C/C(=O)Nc1ccc(-c2nc3ccccc3o2)cc1", "survival": "inactive: 99%"},
      {"smiles": "CCCOc1ccc(CC2C(=O)Nc3ccc(Br)cc32)cc1", "note": "(centres undefined)", "survival": "active: -7%"},
      {"smiles": "O=C(CN1C(=O)CCSc2ccc(S(=O)(=O)N3CCCC3)cc21)Nc1ccccc1Cl", "survival": "inactive: 72%"},
      {"smiles": "CCN(C(=O)CSc1nc2ccccc2nc1Cc1ccccc1OC)c1ccccc1", "survival": "inactive: 88%"},
      {"smiles": "CCCC12CN3CC(CCC)(CN(C1)C3c1c[nH]c3ccc(OC)cc13)C2=O", "note": "(centres undefined)", "survival": "inactive: 86%"},
      {"smiles": "CC(C(=O)NCc1ccccc1)n1ccc2cc(S(=O)(=O)N3CCCC3)ccc21", "note": "(centres undefined)", "survival": "active: -3%"},
      {"smiles": "CCOc1ccccc1CNC(=O)CCc1cn(C)c2ccccc12", "survival": "inactive: 125%"},
      {"smiles": "Cc1nc(CC(=O)Nc2ccc(C(N)=O)cc2)cs1", "survival": "inactive: 83%"},
      {"smiles": "CCSC1=NC2(CCN(C(=O)NC3CCCCC3)CC2)N=C1c1ccc(OC)cc1", "survival": "inactive: 136%"},
      {"smiles": "Cc1ccc(C(=O)CC2(O)C(=O)N(CCc3ccccc3)c3ccc(Br)cc32)cc1", "note": "(centres undefined)", "survival": "inactive: 24%"},
      {"smiles": "Cn1c(=Nc2cccc(O)c2)sc2ccccc21", "survival": "inactive: 94%"},
      {"smiles": "CCOCCCNC(=O)C(c1ccc(OC)cc1)N(Cc1cccs1)C(=O)CNC(C)=O", "note": "(centres undefined)", "survival": "inactive: 79%"},
      {"smiles": "CCc1cccc(NC(=O)CN2C(=O)COc3ccc(S(=O)(=O)N4CCC(C)CC4)cc32)c1", "survival": "inactive: 69%"},
      {"smiles": "CC(=O)Nc1ccc(S(=O)(=O)NC2(C(F)(F)F)C(=O)Nc3c2c(=O)[nH]c(=O)n3-c2ccc(C)cc2)cc1", "note": "(centres undefined)", "survival": "inactive: 63%"},
      {"smiles": "COc1ccc(NC(=O)Cn2c(=O)n(Cc3ccccc3Cl)c(=O)c3cc(OC)c(OC)cc32)cc1", "survival": "inactive: 75%"},
      {"smiles": "CCOC(=O)c1cc2c(=O)n3ccccc3nc2n(CCCOC)c1=NC(=O)c1cc2ccccc2o1", "survival": "inactive: 70%"},
      {"smiles": "O=c1oc2ccc(Cl)cc2cc1-c1nc(-c2cccs2)no1", "survival": "inactive: 100%"},
      {"smiles": "Cc1ccc(CCNC(=O)c2cc3ccccn3n2)cc1", "survival": "inactive: 92%"},
      {"smiles": "Cc1ccc(Cn2c(C)c3cnn(CC(=O)N4CCN(c5cc(C)ccc5C)CC4)c(=O)c3c2C)cc1", "survival": "inactive: 65%"},
      {"smiles": "COc1cccc(-n2c(C)nc3c(cnn3-c3ccc(C)c(C)c3)c2=O)c1", "survival": "inactive: 54%"},
      {"smiles": "CCOc1cc2[nH]c(=O)n(CCC(=O)N3CCN(c4ccccc4)CC3)c(=O)c2cc1OCC", "survival": "inactive: 74%"},
      {"smiles": "COC(=O)c1c(NC(=O)CS(=O)(=O)c2ccc(C)cc2)sc2c1CCCCC2", "survival": "inactive: 67%"},
      {"smiles": "Cc1ccc(-n2nc3c(N4CCCC(C(=O)NCc5ccccc5C)C4)nnc(C)c3c2C)cc1", "note": "(centres undefined)", "survival": "inactive: 80%"},
      {"smiles": "Cn1c(=O)n(C)c2cc(CNCc3ccccc3Cl)ccc21", "survival": "inactive: 87%"},
      {"smiles": "COc1cccc(C(=O)NCc2cn3cccc(C)c3n2)c1", "survival": "inactive: 90%"},
      {"smiles": "O=C(c1ccccc1)N(Cc1ccco1)c1nc(-c2ccccc2)cs1", "survival": "inactive: 103%"},
      {"smiles": "O=C(c1ccc(Cl)cc1)n1nc(-c2ccccc2)nc1NCc1ccco1", "survival": "active: 24%"},
      {"smiles": "COc1ccc2c(c1)c1c(c(=O)n(-c3cc(Cl)ccc3C)c(=O)n1Cc1ccc(F)cc1)n2C", "survival": "inactive: 124%"},
      {"smiles": "CC(C)c1ccc(NC(=O)CSC2=Nc3ccccc3C3=NC(CCC(=O)NCc4cccs4)C(=O)N23)cc1", "note": "(centres undefined)", "survival": "inactive: 89%"},
      {"smiles": "CCOc1ccc(NC(=O)c2nn(C)c3c2COc2ccccc2-3)cc1", "survival": "inactive: 83%"},
      {"smiles": "CCOc1ccc(S(=O)(=O)Nc2cc3c(C(=O)OCc4ccccc4)c(C)oc3c3ccccc23)cc1", "survival": "inactive: 117%"},
      {"smiles": "Cc1c(Cl)cccc1-n1ncc(C(=O)NC2CCCC2)c1C1CCN(C(=O)OC(C)(C)C)CC1", "survival": "inactive: 66%"},
      {"smiles": "Cc1ccc(NC(=O)N2CCN3CCCCC3C2)cc1C", "note": "(centres undefined)", "survival": "inactive: 69%"},
      {"smiles": "Cc1cc(C)nc(NCC(O)CNc2ccccc2Cl)n1", "note": "(centres undefined)", "survival": "inactive: 113%"},
      {"smiles": "CC(=O)c1c(C)n(-c2cccc(Cl)c2)c2ccc(OC(=O)c3ccccc3)cc12", "survival": "inactive: 91%"},
      {"smiles": "O=C(CNS(=O)(=O)c1ccccc1)NCC1CCCO1", "note": "(centres undefined)", "survival": "inactive: 107%"},
      {"smiles": "CCCOC(=O)c1c(-c2ccccc2)c(-c2ccccc2)nn(C)c1=O", "survival": "inactive: 86%"},
      {"smiles": "Cc1cc(C)c(-c2n[nH]c3c2C(c2ccccc2F)N(CCO)C3=O)c(O)c1", "note": "(centres undefined)", "survival": "inactive: 83%"},
      {"smiles": "COc1ccccc1C(=O)OCc1cc(=O)n2c(C)csc2n1", "survival": "inactive: 71%"},
      {"smiles": "CCSc1ncc(Cl)c(C(=O)Nc2cc(C)ccc2C)n1", "survival": "inactive: 90%"},
      {"smiles": "COc1cccc(NC(=O)CSc2nc(=O)[nH]c3c2CCCC3)c1", "survival": "inactive: 85%"},
      {"smiles": "N#C/C(=C(/O)CN1C(=O)c2ccccc2C1=O)c1nc2ccccc2[nH]1", "survival": "inactive: 117%"},
      {"smiles": "COc1ccc(CCNC(=O)CN2C3CCCC2CC(=O)NC3)cc1OC", "note": "(centres undefined)", "survival": "inactive: 94%"},
      {"smiles": "COc1ccc(-c2[nH]c(-c3ccc(C)cc3)nc2SCC(=O)NCC2CCCO2)cc1", "note": "(centres undefined)", "survival": "inactive: 86%"},
      {"smiles": "COc1ccc(Br)cc1CNCc1c(C(=O)O)c(C)n(Cc2ccccc2C)c1C", "survival": "inactive: 95%"},
      {"smiles": "CCOc1ccc(-c2cc3nc(C4CCN(C(=O)OC(C)(C)C)CC4)c(C(=O)Nc4cccc(C(F)(F)F)c4)cn3n2)cc1", "survival": "inactive: 81%"},
      {"smiles": "Cc1nc2cccnc2n1-c1cccc(C(=O)NCc2cccc(Cl)c2)c1", "survival": "inactive: 94%"},
      {"smiles": "C=CCn1c(Br)nc2c1c(=O)n(C)c(=O)n2C", "survival": "inactive: 104%"},
      {"smiles": "CCS(=O)(=O)N1CC(=O)N(c2cc(Cl)ccc2C)C(C)(C(=O)NC2CCCCCC2)C1", "note": "(centres undefined)", "survival": "inactive: 78%"},
      {"smiles": "CCCCCOC(=O)CSc1nc2sc3c(c2c(=O)n1Cc1ccccc1)CC(C)(CC)OC3", "note": "(centres undefined)", "survival": "inactive: 61%"},
      {"smiles": "Cc1cc2c(cc1S(=O)(=O)CCC(=O)N1CCN(c3ccccc3)CC1)OCC(=O)N2", "survival": "inactive: 91%"},
      {"smiles": "COc1cc(Cl)c(NS(=O)(=O)c2cc3[nH]c(=O)c(=O)[nH]c3cc2C)c(OC)c1", "survival": "inactive: 128%"},
      {"smiles": "COc1cccc(C(=O)NC2=NC(c3ccccc3F)CC(=O)N2)c1", "note": "(centres undefined)", "survival": "inactive: 73%"},
      {"smiles": "CCOC(=O)N1CCN(C(=S)Nc2ccc3nsnc3c2)CC1", "survival": "inactive: 103%"},
      {"smiles": "Cc1ccc(-n2c(=O)c3c4c(sc3n(CC(=O)C(C)(C)C)c2=O)CCCCC4)cc1C", "survival": "inactive: 73%"},
      {"smiles": "COc1ccc(-c2nc3scc(CCNS(=O)(=O)c4cccs4)n3n2)cc1", "survival": "active: 1%"},
      {"smiles": "COc1ccc(CNC(=O)CCc2c(C)nn(-c3ccc(N4CCCC4)nn3)c2C)cc1", "survival": "inactive: 77%"},
      {"smiles": "CCOC(=O)Cc1ccc(NC(=O)Nc2nnc(N3CCCCC3C)s2)cc1", "note": "(centres undefined)", "survival": "inactive: 89%"},
      {"smiles": "CN=C1SC(CC(=O)NC(N)=O)C(=O)N1C", "note": "(centres undefined)", "survival": "inactive: 92%"},
      {"smiles": "c1cc2c(cc1CNc1ccc(N3CCOCC3)cc1)OCO2", "survival": "inactive: 108%"},
      {"smiles": "COC(=O)c1ccc(NC(=O)c2c(-c3ccccc3)c(-c3ccccc3)nn(C)c2=O)cc1", "survival": "inactive: 86%"},
      {"smiles": "O=C(Nc1ccc2c(c1)CCCN2C(=O)c1cccs1)c1ccccc1C(F)(F)F", "survival": "inactive: 70%"},
      {"smiles": "CCCN(C(=O)c1cc2c(s1)-c1ccccc1OC2)c1ccc(C(C)C)cc1", "survival": "active: 5%"},
      {"smiles": "Cc1cccc(OC(=O)c2snnc2C)c1C", "survival": "inactive: 80%"},
      {"smiles": "CCC(=O)N1CCc2cc(Br)cc(S(=O)(=O)NCCc3ccc(C)cc3)c21", "survival": "inactive: 80%"},
      {"smiles": "CCOC(=O)c1ccc(NC(=O)Nc2cc3c(cc2N2CCCCC2)n(CC)c(=O)n3CC)cc1", "survival": "inactive: 109%"},
      {"smiles": "Cc1ccc(S(=O)(=O)Nc2nc(C)c(NC(=O)NC3C=NN=C3)s2)cc1", "survival": "inactive: 106%"},
      {"smiles": "CCc1ccc(Nc2nc(-c3cc4cccc(OC)c4oc3=O)c(CC)s2)cc1", "survival": "inactive: 126%"},
      {"smiles": "Cc1ccc(NC(=O)C2CCC(CNS(=O)(=O)c3cccs3)CC2)cc1C", "note": "(centres undefined)", "survival": "inactive: 75%"},
      {"smiles": "COc1ccc(-c2nnn(CC(=O)N(CC(=O)NC3CCCC3)c3ccccc3)n2)cc1OC", "survival": "inactive: 104%"},
      {"smiles": "CCC(=O)N1c2ccc(S(=O)(=O)CCC(=O)NCc3ccc(OC)cc3)cc2CC1C", "note": "(centres undefined)", "survival": "inactive: 120%"},
      {"smiles": "CCOC(=O)C1CCN(C(=O)c2ccc(C)c(NC(=O)c3nsc4ccccc34)c2)CC1", "survival": "inactive: 75%"},
      {"smiles": "Cc1cc(C)c(NC(=O)CCN2CCCCC2)c(C)c1", "survival": "inactive: 92%"},
      {"smiles": "OCCN(CCO)CC(O)Cn1c2ccc(Br)cc2c2cc(Br)ccc21", "note": "(centres undefined)", "survival": "inactive: 74%"},
      {"smiles": "O=C(Cn1c(=O)c2ccccc2n(CC(=O)Nc2ccccc2F)c1=O)NCCc1ccccc1", "survival": "inactive: 89%"},
      {"smiles": "CCc1cccc(C)c1Nc1c(-c2cccs2)nc2ncccn12", "survival": "inactive: 71%"},
      {"smiles": "O=S(=O)(Nc1ccc(OC(F)(F)F)cc1)c1ccc(N2CCCCS2(=O)=O)cc1", "survival": "inactive: 68%"},
      {"smiles": "Cc1cc(C)c(S(=O)(=O)NCC(c2ccco2)S(=O)(=O)c2ccccc2)c(C)c1", "note": "(centres undefined)", "survival": "inactive: 124%"},
      {"smiles": "COc1ccc(NC(=O)COCc2cc(-c3ccco3)on2)cc1Cl", "survival": "inactive: 118%"},
      {"smiles": "O=C(Nc1ccc(F)c(F)c1)c1ccc(=O)n(Cc2ccc(F)cc2)c1", "survival": "inactive: 121%"},
      {"smiles": "CC(C)c1ccc(S(=O)(=O)NCc2nc3cccnc3n2Cc2ccc(F)cc2)cc1", "survival": "inactive: 78%"},
      {"smiles": "CC1=C(C(=O)Nc2cc(C)cc(C)c2)C2(CCCCC2)OC1=O", "survival": "inactive: 86%"},
      {"smiles": "Cn1cnnc1SCCOc1ccc(Cl)cc1", "survival": "inactive: 111%"},
      {"smiles": "COc1ccc(N2CCN(C(=O)CSc3nnc4c(C)cc5cc6c(cc5n34)OCCO6)CC2)cc1", "survival": "inactive: 104%"},
      {"smiles": "Cc1nc2nc(CNC(=O)OC(C)(C)C)nn2c(C)c1CCC(=O)NCc1ccccc1Cl", "survival": "inactive: 82%"},
      {"smiles": "COc1ccc(CCNC(=O)CCc2c(C)c3ccc(O)c(C)c3oc2=O)cc1", "survival": "inactive: 114%"}
    ]}
  ]
}
